Measured values from the supplement of paper PMC12217912.
This is one part of the list. Sequences were assembled here from the parent chain. Values near 0.05 are background.

B1: TEV protease; numbered along this chain (parent)
chain: MGESLFKGPRDYNPISSSICHLTNESDGHTTSLYGIGFGPFIITNKHLFRRNNGTLVVQSLHGVFKVKDTTTLQQHLVDGRDMIIIRMPKDFPPFPQKLKFREPQREERICLVTTNFQTKSMSSMVSDTSCTFPSGDGIFWKHWIQTKDGQCGSPLVSTRDGFIVGIHSASNFTNTNNYFTSVPKNFMELLTNQEAQQWVSGWRLNADSVLWGGHKVFMVKPEEPFQPVKEATQL

Variants of: B1
Assay: raw area under fraction-flipped curve 0-4 h after induction (AUC4h, not background-subtracted), DNA-recorder readout of cleavage of the substrate (dimensionless); higher = more cleavage of the substrate by the protease variant
Details: temperature: 34 °C; time window: 0-4 h after rhamnose induction
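Note: Bxb1 expression induced with 0.2% (w/v) L-rhamnose at OD600 near 0.5, cultures sampled hourly, flipped fraction per protease–substrate barcode pair counted by paired-end Illumina sequencing.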

Variant	area with substrate ENLYFQF	area with substrate ENLYFQG	area with substrate ENLYFQI	area with substrate ENLYFQN	area with substrate ENLYFQS	area with substrate ENLYFQT	area with substrate ENLYFQV	area with substrate ENLYFQW	area with substrate ENLYFQH	area with substrate ENLYFQL	area with substrate ENLYFQM	area with substrate ENLYFQQ	area with substrate ENLYFQD	area with substrate ENLYFQE	area with substrate ENLYFQK	area with substrate ENLYFQP	area with substrate ENLYFQR	area with substrate ENLYFQY
MGESLFKGPRDYNPISSSICHLTNESDGHTTSLYGIGFGPFIITNKHLFRRNNGTLVVQSLHGVFKVKDTTTLQQHLVDGRDMIIIRMPKDFPPFPQKLKFREPQREERICLVTTNFQTKSMSSMVSDTSCTFPSGDGIFWKHWIQTKDGQCGSPLVSTRDGFIVGIHSASNFTNTNNYPTSVPKNFMELLTNQEAQQWVSGWRLNADSVLWGGHKVFMVKPEEPFQPVKEATQL [F180P]	0.0468	0.0499	0.0632	0.0858	0.056	0.0522	0.0328	0.0478										
MGESLFKGPRDYNPISSSICHLTNESDGHTTSLYGIGFGPFIITNKHLFRRNNGTLVVQSLHGVFKVKDTTTLQQHLVDGRDMIIIRMPKDFPPFPQKLKFREPQREERICLVTTNFQTKSMSSMVSDTSCTQPSGDGIFWKHWIQTKDGQCGSPLVSTRDGFIVGIHSASNFTNTNNYFTSVPKNFMELLTNQEAQQWVSGWRLNADSVLWGGHKVFMVKPEEPFQPVKEATQL [F133Q]	0.0735	0.118	0.0137	0.0695	0.118	0.0712	0.0516	0.0748	0.0818	0.0733	0.0991	0.0752						
MGESLFKGPRDYNPISSSICHLTNESDGHTTSLYGIGFGPFIITNKHLFRRNNGTLVVQSLHGVFKVKDTTTLQQHLVDGRDMIIIRMPKDFPPFPQKLKFREPQREERICLVTTNFQTKSMSSMVSDTSCTFPSGDGIFWKHWYQTKDGQCGSPLVSTRDGFIVGIHSASNFTNTNNYFTSVPKNFMELLTNQEAQQWVSGWRLNADSVLWGGHKVFMVKPEEPFQPVKEATQL [I145Y]			0.0441	0.0532	0.0725	0.064	0.0557		0.0652	0.0553	0.0921		0.0624	0.0691	0.0658	0.0524	0.0538	0.0569
MGESLFKGPRDYNPISSSICHLTNESDGHTTSLYGIGFGPFIITNKHLFRRNNGTLVVQSLHGVFKVKDTTTLQQHLVDGRDMIIIRMPKDFPPFPQKLKFREPQREERICLVTTNFQTKSMSSMVSDTSCTFPSGDGIFWKHWIQTKDGQCGSPLVSTRDGFIVGIHSASNFTNTNNYFTSVPKNFMELLTNQEAQQWVSGWRLNADSVLWGGHKVFMVKPREPFQPVKEATQL [E223R]		0.0951	0.0543		0.0929	0.0546	0.0611	0.0746		0.0718	0.0789		0.0691				0.0678	
MGESLFKGPRDYNPISSSICHLTNESDGHTTSLYGIGFGPFIITNKHLFRRNNGTLVVQSLHGVFKVKDTTTLQQHLVDGRDMIIIRMPKDFPPFPQKLKFREPQREERICLVTTNFQTKSMSSMVSDTSCTFPSGDGIFWKHWIQTKDGQCGSPLVSTRDGFIVGIHSASNFTNTNNYFTSVPKNFMELLTNQEAQQWVSGWRLNADSVLWGGHKVFMVKPEEPFQPVTEATQL [K230T]		0.0973	0.0519	0.0647	0.103	0.102		0.0606	0.0747	0.0656	0.0769		0.0875		0.084	0.0542	0.0765	0.0798
MGESLFKGPRDYNPISSSICHLTNESDGHTTSLYGIGFGPFIITNKHLFRRNNGTLVVQSLHGVFKVKDTTTLQQHLVDGRDMIIIRIPKDFPPFPQKLKFREPQREERICLVTTNFQTKSMSSMVSDTSCTFPSGDGIFWKHWIQTKDGQCGSPLVSTRDGFIVGIHSASNFTNTNNYFTSVPKNFMELLTNQEAQQWVSGWRLNADSVLWGGHKVFMVKPEEPFQPVKEATQL [M88I]	0.0699		0.056	0.085	0.0964	0.0554	0.0639			0.0735					0.0346		0.0615	0.0775
MGESLFKGVRDYNPISSSICHLTNESDGHTTSLYGIGFGPFIITNKHLFRRNNGTLVVQSLHGVFKVKDTTTLQQHLVDGRDMIIIRMPKDFPPFPQKLKFREPQREERICLVTTNFQTKSMSSMVSDTSCTFPSGDGIFWKHWIQTKDGQCGSPLVSTRDGFIVGIHSASNFTNTNNYFTSVPKNFMELLTNQEAQQWVSGWRLNADSVLWGGHKVFMVKPEEPFQPVKEATQL [P9V]	0.0895	0.0958		0.0514	0.108		0.0638	0.0709	0.0417		0.0956					0.0744	0.0617	0.0703
MGESLFKGPRDYNPISSSICHLTNTSDGHTTSLYGIGFGPFIITNKHLFRRNNGTLVVQSLHGVFKVKDTTTLQQHLVDGRDMIIIRMPKDFPPFPQKLKFREPQREERICLVTTNFQTKSMSSMVSDTSCTFPSGDGIFWKHWIQTKDGQCGSPLVSTRDGFIVGIHSASNFTNTNNYFTSVPKNFMELLTNQEAQQWVSGWRLNADSVLWGGHKVFMVKPEEPFQPVKEATQL [E25T]		0.0811	0.0439	0.0863	0.11			0.0695	0.0813	0.0678	0.0074				0.061		0.0513	0.0862
MGESLFKGPRDYNPISSSICHLTNESDGHTTSLYGIGFGPFIITNKHLFRRNNGTLVVQSLHGVFKVKDTTTLQQHLVDGRDMIIIRMPKDFPPFPQKLKFREPQREERICLVTTNFQHKSMSSMVSDTSCTFPSGDGIFWKHWIQTKDGQCGSPLVSTRDGFIVGIHSASNFTNTNNYFTSVPKNFMELLTNQEAQQWVSGWRLNADSVLWGGHKVFMVKPEEPFQPVKEATQL [T119H]		0.113		0.102	0.108	0.0622		0.0686								0.0509	0.082	
